# From PubChem BioAssay (NCATS)
# The list shows a part of the results. Further columns of the screen follow, without active or inactive calls. The list favours compounds with an active or inconclusive main result. Words in brackets tell the shape of the fitted curve; partial curves, single points and poor fits give uncertain potencies.
# Assay: qHTS Assay for Lipid Storage Modulators (AID 1519)
# Details: Drosophila S3 cells, BODIPY lipid droplet/cell ratio, laser cytometry, cells loaded with oleic acid
# In short: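 Cells seeded at 5,000 per well were treated with compounds over a concentration series and loaded with oleic acid (400 uM, as added). Lipid droplet fluorescence (488 nm excitation, 500-530 nm channel) was read by laser-scanning cytometry and normalized to 20 uM Triacsin C.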
# [1] = measured here: cell count channel max response
# [2] = measured here: cell number channel AC50
# [3] = measured here: lipid (BODIPY) channel AC50
# [4] = measured here: lipid channel max response
# Tags describe the fitted curve by direction and shape.
Structure (SMILES),max response [1] [%],AC50 [2],AC50 [3],max response [4] [%]
COc1ccc(Oc2ncc3nc(C)c(=O)n(C4CC4)c3n2)cc1,13.8,"0.398 µM [rising, partial curve]","0.251 µM [rising, partial curve]",23.3
CO/N=C(/C(=O)NC1C(=O)N2C(C(=O)O)=C(COC(N)=O)CSC12)c1ccco1 (configuration not stated),26.2,"2.24 µM [rising, full curve, poor fit]","2.51 µM [rising, full curve]",43.6
COc1ccc2[nH]cc(CCNc3ncnc4ccc(-c5ccoc5)cc34)c2c1,14.9,"0.01 µM [rising, full curve]","0.00891 µM [rising, full curve]",15.7
Cn1c(=O)c(-c2ccc(Cl)cc2)nc2cnc(OCc3ccccc3)nc21,22.8,"0.447 µM [rising, full curve, poor fit]","0.562 µM [rising, full curve]",31.3
Cc1sc(N)c(C(=O)c2cccc(C(F)(F)F)c2)c1C,94.7,"15.8 µM [rising, partial curve]","15.8 µM [rising, partial curve]",112
Cc1noc(C)c1-c1ccc2ncnc(NCCN3CCOCC3)c2c1,32,"2 µM [rising, full curve, poor fit]","2 µM [rising, full curve, poor fit]",28.9
COc1ncc2nc(-c3cn(C)c4ccccc34)c(=O)n(CCc3ccccc3)c2n1,22,"1.78 µM [rising, partial curve, poor fit]","0.708 µM [rising, full curve, poor fit]",29.2
CC(N)(C(=O)O)c1ccc(C(=O)O)cc1 (configuration not stated),38,"0.112 µM [falling, full curve, poor fit]","0.112 µM [falling, full curve, poor fit]",38.3
COc1ccc(-c2cc(=O)c3ccc(O)cc3o2)cc1,65.5,"31.6 µM [rising, partial curve, poor fit]","31.6 µM [rising, partial curve, poor fit]",88.3
CN(C)C/C=C(\c1ccc(Br)cc1)c1cccnc1,66.3,"11.2 µM [rising, partial curve, poor fit]","10 µM [rising, partial curve]",81.3
O=C(/C=C/c1ccc(O)cc1)c1cccs1,97.2,"15.8 µM [rising, partial curve, poor fit]","15.8 µM [rising, partial curve, poor fit]",115
N#Cc1cccc(-c2nc(NCc3cccs3)c3ccccc3n2)c1,18.8,"3.55 µM [rising, partial curve]","4.47 µM [rising, partial curve]",21.6
CCCCN1CCC[C@@H]1CNC(=O)c1cc(C#N)c2ccccc2c1OC,110,"7.94 µM [rising, partial curve]","8.91 µM [rising, partial curve]",138
N=C(N)SCCc1ccc(OCc2ccc([N+](=O)[O-])cc2)cc1,51.6,"7.94 µM [rising, full curve, poor fit]","11.2 µM [rising, partial curve]",66.2
c1cncc(CNc2ccnc(-c3cccnc3)n2)c1,39.8,"3.55 µM [rising, full curve]","3.16 µM [rising, full curve]",49.5
COc1ccc(Oc2ncc3ncc(=O)n(Cc4ccc(F)cc4)c3n2)cc1,15.5,"0.891 µM [rising, full curve]","0.708 µM [rising, full curve]",21.9
CC(=O)[C@H](CC(C)C)NC(=O)[C@@H](CC(C)C)NC(=O)[C@H](CC(C)C)NC(=O)OCc1ccccc1,53.1,"14.1 µM [rising, partial curve, poor fit]","2.82 µM [rising, single point]",36
COc1ccccc1-c1nccc(NCc2cccnc2)n1,38.9,"6.31 µM [rising, partial curve]","3.16 µM [rising, partial curve]",41.1
